In the RNAGym collection of RNA variant scans (doi:10.1093/nar/gkz1192):
The source gives no read counts; variants with many changes may rest on few reads.

B1: CPEB3 Ribozyme (parent)
chain: UAACAGGGGGCCACAGCAGAAGCGUUCACGUCGCAGCCCCUGUCAGAUUCUGGUGAAUCUGCGAAUUCUGCUGUAUAUCUC

Variants of: B1
Test: self-cleavage, relative activity (ratio to wild type); higher = more cleavage; in vitro, sequencing
Summary of the method: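 Relative activity was defined as the cleaved/total read fraction for a variant divided by the same fraction for the unmutated ribozyme. CPEB3 self-cleaving ribozyme libraries were made by rounds of error-prone PCR, barcoded, and transcribed in vitro with T7 RNA polymerase for 5 hours at 37°C, and cleavage ran through transcription plus a 15 min DNase I step before EDTA. Illumina sequencing of template-switched reverse transcripts gave the reads, and DNA sequencing mapped the barcodes. Averages come from three batches, using variants with at least 5 reads.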

Variant | self-cleavage
G10C U25A A57G | 0.09
G10C U25C A35U A65C U74C | 0.06
G10C U25C U26A A64U | 0.07
G10C U25C U43A A45G U74C U78C | 0.06
G10C U26C C27U A56G | 0.13
G10C U26C U67C | 0.12
G10C U43A U49A | 0.15
G10C U49A A56G | 0.27
G10C U49A U54C A65G U67C | 0.18
G10C U51C U66C U78C | 0.06
G10C U51C U72A U80C | 0.07
G10C U54C U76C U80C | 0.19
G10C U58C U72C | 0.16
G10C U60A U72G U76C | 0.08
G10C U66C U72A | 0.15
G10C U67C U74C | 0.12
G10C U74C U80C | 0.27
G10C U78C U80A | 0.2
G10U A13G A57G U60A | 0.06
G10U A15G A45U | 0.08
G10U A15G U25C A35U A57G | 0.28

Variant | self-cleavage
G10U A18G A21G U26C G61U | 0.05
G10U A18G C23A U25C A45G | 0.03
G10U A18G G19C U41A U78C | 0.22
G10U A18G U31C C39U U67C | 0.04
G10U A18U A21G U31C U78C U80A | 0.16
G10U A20G A21G U31C U43G A56G | 0.05
G10U A20G A21U U80C | 0.28
G10U A20G A35G C38U U41A U49C G63A | 0.04
G10U A20G G63A | 0.21
G10U A20G U41A | 0.32
G10U A21G U25C U31A G33U U43A U78C | 0.05
G10U A21G U31A C39U A64U U67C U76A | 0.03
G10U A21G U41C G55U | 0.51
G10U A21U U31C A64G | 0.04
G10U A28C C50A | 0.32
G10U A28G C29U C38A A56G U58C U78A | 0.03
G10U A28G C50U U54C | 0.05
G10U A28G U41C U54G G55A | 0.37
G10U A28U U41A U48C U54C A56G U72G | 0.03
G10U A35G A45G A57G U60A | 0.06
G10U A56U U69C U72C U76C | 0.07

Variant | self-cleavage
G10U A57G C62U C79A | 0.06
G10U A64U U74C A75C | 0.07
G10U C12U U49C U76C | 0.05
G10U C14U G24C U41G U80C | 0.04
G10U C23A A35G U41C U67C | 0.1
G10U C23G A47G U48A U49C A65G | 0.06
G10U C29A U43G U60C | 0.13
G10U C29U A45G | 0.05
G10U C32U G36U U41A U54C U67A A77U | 0.05
G10U C37A G70A | 0.13
G10U G16U A28G U80C | 0.07
G10U G19U G42A U58C | 0.06
G10U G24A U54C U58C | 0.08
G10U G30A U43G | 0.07
G10U U25A U80C | 0.18
G10U U25C G61C U74A A75U | 0.02
G10U U25C U58C | 0.14
G10U U25C U72C | 0.18
G10U U26A U41C G63U | 0.2
G10U U26C C40U A56U A57G | 0.06
G10U U26G U41A C62U U67C | 0.06

Variant | self-cleavage
G10U U31G A64G G70C | 0.13
G10U U41A C62U U67C A77G | 0.1
G10U U43C U51G U60C G73C | 0.06
G10U U48C U60A U67C | 0.12
G10U U49A A64G | 0.58
G10U U49A U58A A64G U67C U80C | 0.05
G10U U51A U60A G70A U80C | 0.12
G10U U54G G70A | 0.11
G10U U60C U72A | 0.12
C11A A13C A18G U48A U69C | 0.05
C11A A13G A35G C37A U72C | 0.05
C11A A13G A47G U67G | 0.14
C11A A13G A57G A64U | 0.28
C11A A13G C29U C39G U54C U72C | 0
C11A A13G C37A A56U G70C | 0.06
C11A A13G U25A U43A U60A U78A | 0.03
C11A A13G U54A A77C | 0.31
C11A A13U A15U A20G C27A G36A U72C | 0.27
C11A A13U A35U G42U A45G U74C | 0.07
C11A A13U A47G U78C | 0.2
